From the supplement of paper PMC4604168 (melanoma cell lines) come the findings set out here.

The other results are listed elsewhere or left out. Most values come without repeats; read them as rough.
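Note: cells treated in 1,536-well plates, then fixed and DAPI-stained, with nuclei counted from automated high-throughput microscope images.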

The experiment has as its system MEL-HO. The experiment can be described thus: cell count relative to DMSO control; melanoma cells; higher = more viable cells. Conditions: library dose: standard library concentration; 72 h.
`CC[C@]1(O)C[C@H]2CN(CCc3c([nH]c4ccccc34)[C@@](C(=O)OC)(c3cc4c(cc3OC)N(C=O)[C@H]3[C@@](O)(C(=O)OC)[C@H](OC(C)=O)[C@]5(CC)C=CCN6CC[C@]43[C@@H]65)C2)C1` [vincristine] + COc1ccc2c(c1)CCC1C2CCC2(C)C(NCCCCCCN3C(=O)C=CC3=O)CCC12 [U73122] (first compound 0.0005 µM, partner dose 2 µM) came in with a cell count of 96.6%. `Cc1cc(Nc2cc(N3CCN(C)CC3)nc(Sc3ccc(NC(=O)C4CC4)cc3)n2)n[nH]1` [Tozasertib] + N#Cc1c(O)c2c(-c3ccc(-c4ccccc4O)cc3)csc2[nH]c1=O [A769662] (first compound 0.03 µM, partner dose 10 µM) gave a cell count of 96%. To `Cc1cc(Nc2cc(N3CCN(C)CC3)nc(Sc3ccc(NC(=O)C4CC4)cc3)n2)n[nH]1` [Tozasertib] + Cn1cncc1[C@@](N)(c1ccc(Cl)cc1)c1ccc2c(c1)c(-c1cccc(Cl)c1)cc(=O)n2C [tipifarnib] (first compound 0.03 µM, partner dose 0.05 µM) belongs 106%; to `Cc1cc(Nc2cc(N3CCN(C)CC3)nc(Sc3ccc(NC(=O)C4CC4)cc3)n2)n[nH]1` [Tozasertib] + C#Cc1cccc(Nc2ncnc3cc(OCCOC)c(OCCOC)cc23)c1 [erlotinib] (first compound 0.03 µM, partner dose 4 µM), 81.8%. `Cc1cc(Nc2cc(N3CCN(C)CC3)nc(Sc3ccc(NC(=O)C4CC4)cc3)n2)n[nH]1` [Tozasertib] + COc1cc(N2CCC(N3CCN(C)CC3)CC2)ccc1Nc1ncc(Cl)c(Nc2ccccc2S(=O)(=O)C(C)C)n1 [NVP-TAE684] (first compound 0.03 µM, partner dose 0.4 µM) had a cell count of 70.8%.
